Reference: PubChem BioAssay AID1240 (Sanford-Burnham Center for Chemical Genomics, 2008)
About 800 (1.6%) of roughly 50,000 compounds showed an effect of 50% or more. The list shows a part of the results.

These compounds were tested against Bcl-2-like protein 10 (Homo sapiens) (UniProt Q9HD36) (assay: TR3 peptide-Bcl-B binding displacers, biochemical primary FP assay, phenotype converters (AID 1240;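 note: 0% = Bcl-B with tracer peptide and DMSO and 100% = tracer peptide lacking Bcl-B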)). Conditions: GST-Bcl-B / FITC-TR3 peptide fluorescence polarization; stronger effect = higher value; compound at 3.75 mg/L.
Sequence of UniProt Q9HD36 (Q9HD36 whole entry, looked up): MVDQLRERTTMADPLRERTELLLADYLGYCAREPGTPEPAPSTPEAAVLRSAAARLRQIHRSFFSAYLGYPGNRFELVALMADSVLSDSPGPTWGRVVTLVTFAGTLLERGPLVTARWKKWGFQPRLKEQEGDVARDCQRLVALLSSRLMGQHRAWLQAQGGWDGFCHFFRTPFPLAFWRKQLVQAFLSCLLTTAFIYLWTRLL

Structure (SMILES) | displacement
CCOC(=O)c1ccc(NC(=O)COc2ccc(Cl)cc2C)cc1 | -2%
COc1ccc(C2Nc3ccccc3C(=O)N2c2ccc(Cl)cc2)cc1Cn1nnc2ccccc21 (stereo unspecified) | 20.5%
CC1(C)CC(=O)c2c(oc3ccc(NS(=O)(=O)c4ccc5c6c(cccc46)C(=O)N5)cc23)C1 | 27.1%
COc1ccc(C(=O)NCc2cccnc2)c(OC)c1 | 15.5%
COc1ccccc1CC(=O)Nc1cccc(Cl)c1C | 3.9%
C=C(C)COc1cc2oc(=O)c3c(c2cc1Cl)CCCC3 | 0%
O=C(c1ccco1)N1CCN(Cc2ccco2)CC1 | 11.2%
OC(COc1ccccc1Cl)Cn1c2ccccc2c2ccccc21 (stereo unspecified) | 18.6%
COc1ccc(NS(=O)(=O)c2ccc(C3CCCCC3)cc2)cc1 | -7.5%
O=C(O)/C=C\C(=O)Nc1ccc(Cl)c(C(F)(F)F)c1 | 8.3%
O=C1c2cccc3ccc(Cl)c(c23)C(=O)N1O | 9.8%
NS(=O)(=O)c1ccc(CNC(=S)Nc2ccc(F)cc2)cc1 | -7.2%
COc1ccc(C(=O)Nc2ccc(N3CCN(C(C)=O)CC3)cc2)cc1OC | 11.8%
Cc1ccccc1N(CC(=O)O)S(=O)(=O)c1ccccc1 | 4.8%
Cc1[nH]n(-c2nc(-c3cccc([N+](=O)[O-])c3)cs2)c(=O)c1N=Nc1ccc(Cl)c(Cl)c1 | -15.7%
Cc1ccc(S(=O)(=O)O/N=C2\CCCc3nonc32)cc1 | 1.5%
Cc1c(Br)c(C(F)(F)F)nn1CC(=O)N1CCc2ccccc2C1 | 14.1%
COC(=O)C1=NN(C(C)=O)C(O)(c2ccccc2)C1 (stereo unspecified) | 2.1%
CC1CN(Cc2c(O)ccc3c(=O)c(Oc4ccccc4Br)c(C(F)(F)F)oc23)CC(C)O1 (stereo unspecified) | -3.2%
FC(F)(F)c1ccccc1CN1CCN(Cc2ccccc2Cl)CC1 | 5.9%
Cc1ccc2nc(NC(=O)C3CCCO3)sc2c1 (stereo unspecified) | -0.2%
CCOC(=O)C1=C(C)NC(=S)NC1c1cc([N+](=O)[O-])ccc1O (stereo unspecified) | -2.7%
CN(C(=O)c1ccc(Cl)cc1)c1ccccc1 | -6.4%
CCSc1nc2c(cc1C#N)CCCC2 | 0.9%

Structure (SMILES) | displacement
Cc1cc(NCCCN(C)C)n2c(nc3ccccc32)c1C#N | -13.5%
COc1ccc(C2CC(=O)C3=C(C2)Nc2ccccc2NC3c2c(F)cccc2Cl)cc1 (stereo unspecified) | -9%
CCc1nc2c(C)ccc(C)c2c(N)c1C | -21.7%
Cc1ccc(C(=O)Sc2nc(-c3ccccc3)[nH]c2S(=O)(=O)c2ccc(C)cc2)cc1 | 6.5%
CCN(CC)C(=O)CN(c1ccc(Oc2ccccc2)cc1)S(C)(=O)=O | 2.2%
CSc1nc(C)c(C(=O)Nc2ccccc2)c(C)c1C#N | -8.9%
CCC(=O)Nc1ccc(NC(=O)/C=C/c2ccco2)cc1 | 4.4%
CCCc1c(O)nc(SCC(=O)O)[nH]c1=O | 0.2%
CC1=CC(C)(C)N(C(=O)c2ccccc2)c2ccccc21 | -27.4%
Cc1cc([N+](=O)[O-])ccc1-c1ccc(C(=O)Nc2ccc(I)cc2Cl)o1 | 11.2%
COc1ccc(N(CC(=O)Nc2ccc(I)cc2)S(=O)(=O)c2ccc(C)cc2)c(OC)c1 | 11.3%
Clc1cccc(CN2CCN(Cc3ccncc3)CC2)c1 | -20.6%
O=C(NCCCO)/C(=C/c1ccc2c(c1)OCO2)NC(=O)c1ccc(Br)o1 | 2.1%
Cc1cc(C)c(OCC(=O)Nc2cccc([N+](=O)[O-])c2)c(C)c1 | 11.6%
CCOC(=O)CNC(=O)c1ccc(C#Cc2ccccc2)cc1 | 2.2%
COc1ccc(/C=C/C(=O)O)cc1S(=O)(=O)NCCCO | 11.4%
CCOC(=O)c1c(NC(=O)CCN2CCN(C)CC2)sc2c1CCCC2 | -4.7%
COC(=O)C1=C(C)NC2=C(C(=O)CC(c3ccc(OC)cc3)C2)C1c1cc(OC)ccc1OC (stereo unspecified) | 0.1%
O=C(c1ccc([N+](=O)[O-])cc1Cl)N1CCN(c2ccccn2)CC1 | -6%
COc1ccccc1N1C(=O)CC(Nc2ccc(N3CCOCC3)cc2)C1=O (stereo unspecified) | -13%
CC(=O)Nc1ccc(C(=O)CSc2n[nH]c(-c3ccccc3)n2)cc1 | 9.9%
Cc1ccc(/C=C2\SC(=S)N(CCC(=O)Nc3ccc(S(=O)(=O)Nc4nccs4)cc3)C2=O)cc1 | -3.5%
Cc1c(NC(=S)NCc2ccccc2)c(=O)n(-c2ccccc2)n1C | 0.5%
O=C(NC1CCN(Cc2ccccc2)CC1)c1ccc(F)cc1 | 2.6%

Structure (SMILES) | displacement
CCCOc1cccc(C(=O)Nc2ccc(NC(=O)CC)cc2)c1 | 6.4%
O=C(/C=C/c1cn(-c2ccccc2)nc1-c1ccccc1)c1cccs1 | 12.3%
O=[N+]([O-])c1ccc(Cl)c(/C=N/NS(=O)(=O)c2ccccc2)c1 | 3.9%
CCOC(=O)C1=C(C)N(c2ccccc2)C(=O)/C1=C\c1cccc([N+](=O)[O-])c1 | 12.8%
Cc1ccc(-n2nnnc2C(=N)c2nnnn2-c2ccc(C)cc2)cc1 | 6.1%
O=C(CC1SC(=O)NC1=O)Nc1ccccc1 (stereo unspecified) | 7%
O=C(Oc1ccc(I)cc1)c1cccs1 | -7.4%
Clc1ccc(/C=N/n2cnnc2)cc1 | 7.9%
CCOP(=O)(OCC)C(Nc1ccccc1)c1cc(Cl)cc(Cl)c1OC (stereo unspecified) | -14.6%
CC(=O)Nc1ccc2c(c1)C1C=CCC1C(c1ccccc1[N+](=O)[O-])N2 (stereo unspecified) | 8.7%
O=C(NC(=S)Nc1ccc2oc(-c3ccccc3Br)nc2c1)c1ccco1 | 38.7%
O=C(O)c1cc2nc3c(c(C(F)(F)F)n2n1)CCc1ccccc1-3 | 19.4%
CC1=C(C)C(C)=C(C#N)C(=C(C#N)C#N)N1 | 4.4%
CCc1cccc(C)c1NC(=O)c1ccc(Br)o1 | 6.8%
C/C(=N\N1CCN(c2ccccc2)CC1)c1ccc(F)cc1 | -8.7%
COc1cccc(/C=C/C(=O)c2cccc([N+](=O)[O-])c2)c1OC | -2.6%
CCC1(C)Cc2c(sc3nc(SCc4ccccc4)[nH]c(=O)c23)CO1 (stereo unspecified) | -2.7%
O=c1c(/C=C(\O)c2ccc([N+](=O)[O-])cc2)nc2ccccc2n1-c1ccccc1 | 20.1%
CCOC(=O)c1sc(N=NC2=C(O)CCCC2=O)c(C(=O)OCC)c1C | 27.7%
CCc1ccc(NC(=O)C2CC2c2ccccc2)cc1 (stereo unspecified) | 13.6%
S=C(NCC1CCCO1)Nc1ccc(Cl)cc1Cl (stereo unspecified) | 0.9%
CCOC(=O)C1=C(O)/C(=C\c2ccccc2)SC1=Nc1cccc(Cl)c1 | -9.4%
COc1ccccc1NS(=O)(=O)c1cc(N2C(=O)C3C4C=C(C)C(C4)C3C2=O)ccc1Cl (stereo unspecified) | -28.4%
